{
  "source": "paper PMC12136788",
  "binders": {"B1": {"name": "chr9:130136078:130136182:+|3pUTR|ENSG00000148358|msi1_unk|total|mutant (ssRNA)", "RNA": "GGGAGUUCUACAGUCCGACGAUCAGUCCAAGCAAAUCAUCCCCAUUAAAAAGCUUUUCCUGCCGGCCCGCCGGAUUUCUAAACCGAUGAAUUCAACAGACUUGGUCCCCACCGUCCAAGAGUAUGUAUGUGAAGAAAGUGAGCCAACAGAGGAUUGAGCAUCA"}, "B2": {"name": "chr1:183143318:183143419:+|3pUTR|ENSG00000135862|msi1|FALSE|unique (ssRNA)", "RNA": "GGGAGUUCUACAGUCCGACGAUCACAUCCUGUGCCAAAGGUAUUGGUCAUUUAGAAUGUCGGUAGCCAUCCAUCAGUGCUUUUAGUUAUUAUGAGUGUAGGACACUGAGCCAUCCGUGGGUCAGGAUGCAAUUAUUUAUAAAACAACAGAGGAUUGAGCAUCA"}, "B3": {"name": "chr4:56994692:56994796:+|CDS|ENSG00000047315|unk|total|mutant (ssRNA)", "RNA": "GGGAGUUCUACAGUCCGACGAUCAAAAACAGUCAUUAAAGAAGGUGAAGAACAACUUCAGACUCAGCAUCAGAAAACUUUUACCGGAAAAAUUCCAAUUAUGUUGCGGUCAACUUACUGCCUUUUGAAUGGCUUGACAGAUCGCAACAGAGGAUUGAGCAUCA"}, "B4": {"name": "chr10:30313878:30313980:-|CDS|ENSG00000107951|unk|total|mutant (ssRNA)", "RNA": "GGGAGUUCUACAGUCCGACGAUCUGUUUUUAUAUUUAAGCCCUUCAUGUACUUACUCAUUUUUUCUUCUGUGUAAUAAUCUACCGGGAAGGGAGCAAAACAAACCUGAUUCUUCUCCUCUGUACAUUCAGAAUCCAUUUGAAACAACAGAGGAUUGAGCAUCA"}, "B5": {"name": "chr19:1925360:1925461:+|3pUTR|ENSG00000227500|msi1|total|mutant (ssRNA)", "RNA": "GGGAGUUCUACAGUCCGACGAUCUCUCGAACUCCUGACCUCAAGUGAUCCACCCGCCUUGGCCUCCCAAAGUGCUGGGAUAACCGGUGUCAGCCACCGCGCCCAGCCUGGAGUGGCCUUUUAUGAGAGGGGACCCGUCAAAUCCAACAGAGGAUUGAGCAUCA"}, "B6": {"name": "ENSG00000198589:be:win_3751|CDS|ENSG00000198589|bound_else_gene|NA|bound_elsewhere_windowed (ssRNA)", "RNA": "GGGAGUUCUACAGUCCGACGAUCACAGAUACUGAGAGGCUGGAGUUGAAGGCCAGUCCCAACGUGGAAGCACCUCAACCUCAUCGACAUGUGCUUGAGAUAUCAAGGCAACAUGAGCAGCCAGGGCAAGGAAUAGCACCAGAUCAACAGAGGAUUGAGCAUCA"}, "B7": {"name": "ENSG00000136451:be:win_3801|3pUTR|ENSG00000136451|bound_else_gene|NA|bound_elsewhere_windowed (ssRNA)", "RNA": "GGGAGUUCUACAGUCCGACGAUCACCCCUAAGCUAGAAUGUGGUUGUCAGAACCCUGAAAGUAUUAGUUCUAAAAAAAAAAAGAUAUAUACUAGAAGUAAUUGUUUUAUCAAUUCAUUGUAUAAUAAACAGGAGUGAGACUUCCAACAGAGGAUUGAGCAUCA"}, "B8": {"name": "chr2:216672738:216672882:-|3pUTR|ENSG00000115461|msi1|total|mutant (ssRNA)", "RNA": "GGGAGUUCUACAGUCCGACGAUCUUCUCUCCGGCUUUUGUUUCUAUUUCAAACAUACUUUCUUGGUUUUCUAAUGGAGUAUACCGUUCCGUCAUUUCACAGACUCUGGCCUCCUCUCCUGAAAUCCUUUUGGAUGGGGAAAGGCAACAGAGGAUUGAGCAUCA"}, "B9": {"name": "ENSG00000124766:be:win_1351|CDS_3pUTR|ENSG00000124766|bound_else_gene|NA|bound_elsewhere_windowed (ssRNA)", "RNA": "GGGAGUUCUACAGUCCGACGAUCACGCCCGAGGUGAGCGAGAUGAUCUCGGGAGACUGGCUCGAGUCCAGCAUCUCCAACCUGGUUUUCACCUACUGAAGGGCGCGCAGGCAGGGAGAAGGGCCGGGGGGGGUAGGAGAGGAGCAACAGAGGAUUGAGCAUCA"}, "B10": {"name": "ENSG00000070961:be:win_5651|3pUTR|ENSG00000070961|bound_else_gene|NA|bound_elsewhere_windowed (ssRNA)", "RNA": "GGGAGUUCUACAGUCCGACGAUCGUUUCUAGUCUUGGUUUUGCCAUUAAUGUGCUGCAUGAUCUUGGGAAAAUCAUUUACCCUAAAUAAGGGUGGUGGACUAUCUUGAAGAACCCUUUCAACUCUAAAAAUUGACCCUAUCAACAACAGAGGAUUGAGCAUCA"}, "B11": {"name": "chr9:16436428:16436529:-|CDS|ENSG00000173068|msi1|FALSE|unique (ssRNA)", "RNA": "GGGAGUUCUACAGUCCGACGAUCCUCCCUAGCCAGCUAGUAUUUUCUGGGCUAAAGACUGUACAACCAGUUCCUCCAUUUUAUAGAAGUUUACUCACUCCAGGGGAAAUGGUGAGUCCUCCAACCUCCCUCCCAACCAGUCCCCAACAGAGGAUUGAGCAUCA"}, "B12": {"name": "chr16:46710636:46710789:-|CDS|ENSG00000140795|control|control|control (ssRNA)", "RNA": "GGGAGUUCUACAGUCCGACGAUCGGCUUGUCCCCAUUUCUAGGGGAAACAGAUGCAGAGACCAUGAAUUUCAUUGUAAACUGUAGCUGGGAUUUUGAUGCUGACACCUUUGAAGGGCUCUCGGAGGAGGCCAAGGACUUUGUUCAACAGAGGAUUGAGCAUCA"}, "B13": {"name": "chr12:53210768:53210868:-|3pUTR|ENSG00000172819|msi1_unk|FALSE|overlapping (ssRNA)", "RNA": "GGGAGUUCUACAGUCCGACGAUCAGGGGGGAUGCUGCUUAGCUGAUCCCGCCCUGACCCAGAGGAAGCCUCUAUUUAUUUAUUAGCUUUUGUUUACACCGUGGAAUUGACCCCUUCCUCCAGGGGUCUUGGGUGGGGGAGCCCCAACAGAGGAUUGAGCAUCA"}, "B14": {"name": "chr6:37217323:37218421:-|three_prime_utr|ENSG00000172738|control|control|control (ssRNA)", "RNA": "GGGAGUUCUACAGUCCGACGAUCAGUUCAAGACCAGCCUGGCCUUGGCAGCCAUGGCAAAACCCCGUCUCUACUAAAAAAAAUAGAAAAUUAGCCAGGCGUGGCGGCACACACCUGUAAUCCCAGCCACUUGAGAGGCUGAGACAACAGAGGAUUGAGCAUCA"}},
  "note": "Some of the results follow.",
  "data": [
    {"biological_target": "MSI1 full-length (mouse, UniProt Q61474 1-362)", "sequence (Q61474 whole entry)": "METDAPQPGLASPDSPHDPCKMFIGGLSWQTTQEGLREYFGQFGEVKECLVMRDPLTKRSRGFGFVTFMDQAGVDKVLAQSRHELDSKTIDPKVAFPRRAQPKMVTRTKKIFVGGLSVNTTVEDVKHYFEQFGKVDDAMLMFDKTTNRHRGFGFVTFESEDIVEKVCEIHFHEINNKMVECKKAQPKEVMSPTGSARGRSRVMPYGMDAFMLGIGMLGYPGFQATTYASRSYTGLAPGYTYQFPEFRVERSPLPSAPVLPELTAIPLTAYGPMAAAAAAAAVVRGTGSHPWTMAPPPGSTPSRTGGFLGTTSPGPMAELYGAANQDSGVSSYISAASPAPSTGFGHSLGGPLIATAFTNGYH", "test": "nsRBNS (natural sequence RNA bind-n-seq); RBNS binding buffer (assumed for nsRBNS): 25 mM Tris pH 7.5, 150 mM KCl, 3 mM MgCl2, 0.01% Triton X-100, 500 ug/ml BSA, 20 U/ml SUPERase-In, 4 C; UNK is unkempt and MSI1 is Musashi-1; names of the RNAs are library labels; protein concentration not given here; high values mean tight binding", "units": {"binding signal": "enrichment R"}, "values": [
      {"binder": "B1", "binding signal": 0.675},
      {"binder": "B2", "binding signal": 34.2},
      {"binder": "B3", "binding signal": 0.235},
      {"binder": "B4", "binding signal": 0.482},
      {"binder": "B5", "binding signal": 0.318},
      {"binder": "B6", "binding signal": 0.4},
      {"binder": "B7", "binding signal": 16.4},
      {"binder": "B8", "binding signal": 0.416},
      {"binder": "B9", "binding signal": 0.451},
      {"binder": "B10", "binding signal": 0.357},
      {"binder": "B11", "binding signal": 6.94},
      {"binder": "B12", "binding signal": 0.566},
      {"binder": "B13", "binding signal": 3.08},
      {"binder": "B14", "binding signal": 1.65}
    ]}
  ]
}
